# Assay results as given in the supplement of paper PMC8728848.
# The list shows a part of the results.
# B1: FimD (Bordetella pertussis) (protein)
# chain: MPARVISFCGAALAVWAGLAVQPAMAVDPPVDCGRALGLHFWSSASLISDQTPDGTLIGKPVVGRSLLSKSCKVPDDIKEDLSDNHDGEPVDIVLELGSNYKIRPQSYGHPGIVVDLPFGSTEETGIAIYIDFGSSPMQKVGERQWLYPQKGEVLFDVLTINGDNAEVRYQAIKVGPLKRPRKLVLSQFPNLFTYKWVFMRGTSQERVLAQGTIDTDVATSTIDLKTCRYTSQTVSLPIIQRSALTGVGTTLGMTDFQMPFWCYGWPKVSVYMSATKTQTGVDGVALPATGQAAGMASGVGVQLINGKTQQPVKLGLQGKIALPEAQQTESATFSLPMKAQYYQTSTSTSAGKLSVTYAVTLNYD
# How the values were obtained:
# Test in all cases: glycan array binding signal (z-score within array); higher = stronger binding
# Settings in all cases: glycan notation: IUPAC condensed, linker removed
# [1] = target: Neu5Ac(a2-6)Gal(b1-4)GlcNAc(b1-3)Gal(b1-4)GlcNAc(b1-3)GalNAc
# In short: (§1)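 The binding signal is a Z-score computed within each array. Data were drawn from 3228 arrays in the Consortium for Functional Glycomics database, restricted to those with a known protein sequence. Scores were averaged over arrays of the same protein sequence at different concentrations or buffers, and over linkers, and negative values can be taken as non-binding.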
# [2] = target: Neu5Ac(a2-6)Gal(b1-4)GlcNAc(b1-3)Gal(b1-4)GlcNAc(b1-3)[Neu5Ac(a2-6)Gal(b1-4)GlcNAc(b1-3)Gal(b1-4)GlcNAc(b1-6)]GalNAc
# In short: as §1
# [3] = target: Neu5Ac(a2-6)Gal(b1-4)GlcNAc(b1-3)Gal(b1-4)GlcNAc(b1-6)[Gal(b1-3)]GalNAc
# In short: as §1
# [4] = target: Neu5Ac(a2-6)Gal(b1-4)GlcNAc(b1-3)Gal(b1-4)[Fuc(a1-3)]GlcNAc(b1-3)Gal(b1-4)[Fuc(a1-3)]GlcNAc
# In short: as §1
# [5] = target: Neu5Ac(a2-6)Gal(b1-4)GlcNAc(b1-3)GalNAc
# In short: as §1
# [6] = target: Neu5Ac(a2-6)Gal(b1-4)GlcNAc(b1-3)[Neu5Ac(a2-6)Gal(b1-4)GlcNAc(b1-6)]GalNAc
# In short: as §1
# [7] = target: Neu5Ac(a2-6)Gal(b1-4)GlcNAc(b1-6)GalNAc
# In short: as §1
# [8] = target: Neu5Ac(a2-6)Gal(b1-4)GlcNAc(b1-6)[Gal(b1-3)GlcNAc(b1-3)]Gal(b1-4)Glc
# In short: as §1
# [9] = target: Neu5Ac(a2-6)Gal(b1-4)GlcNAc(b1-6)[Gal(b1-3)]GalNAc
# In short: as §1
# [10] = target: Neu5Ac(a2-6)Gal(b1-4)GlcNAc6S
# In short: as §1
# [11] = target: Neu5Ac(a2-6)GalNAc
# In short: as §1
# [12] = target: Neu5Ac(a2-6)GalNAc(b1-4)GlcNAc
# In short: as §1
# [13] = target: Neu5Ac(a2-6)GalNAc(b1-4)GlcNAc6S
# In short: as §1
# [14] = target: Neu5Ac(a2-6)GlcNAc(b1-4)GlcNAc
# In short: as §1
# [15] = target: Neu5Ac(a2-6)GlcNAc(b1-4)GlcNAc(b1-4)GlcNAc
# In short: as §1
# [16] = target: Neu5Ac(a2-8)Neu5Ac
# In short: as §1
# [17] = target: Neu5Ac(a2-8)Neu5Ac(a2-3)Gal(b1-3)GalNAc(b1-4)[Neu5Ac(a2-3)]Gal(b1-4)Glc
# In short: as §1
# [18] = target: Neu5Ac(a2-8)Neu5Ac(a2-3)Gal(b1-3)GalNAc(b1-4)[Neu5Ac(a2-8)Neu5Ac(a2-3)]Gal(b1-4)Glc
# In short: as §1
# [19] = target: Neu5Ac(a2-8)Neu5Ac(a2-3)Gal(b1-4)Glc
# In short: as §1
# [20] = target: Neu5Ac(a2-8)Neu5Ac(a2-3)Gal(b1-4)GlcNAc
# In short: as §1
# [21] = target: Neu5Ac(a2-8)Neu5Ac(a2-3)[Gal(b1-3)GalNAc(b1-4)]Gal(b1-4)Glc
# In short: as §1
# [22] = target: Neu5Ac(a2-8)Neu5Ac(a2-3)[GalNAc(b1-4)]Gal(b1-4)Glc
# In short: as §1
# [23] = target: Neu5Ac(a2-8)Neu5Ac(a2-8)Neu5Ac
# In short: as §1
# [24] = target: Neu5Ac(a2-8)Neu5Ac(a2-8)Neu5Ac(a2-3)Gal(b1-4)Glc
# In short: as §1
# [25] = target: Neu5Ac(a2-8)Neu5Ac(a2-8)Neu5Ac(a2-3)[Gal(b1-3)GalNAc(b1-4)]Gal(b1-4)Glc
# In short: as §1
# [26] = target: Neu5Ac(a2-8)Neu5Ac(a2-8)Neu5Ac(a2-3)[GalNAc(b1-4)]Gal(b1-4)Glc
# In short: as §1
# [27] = target: Neu5Ac(a2-8)Neu5Ac(a2-8)Neu5Ac(a2-8)Neu5Ac(a2-3)[GalNAc(b1-4)]Gal(b1-4)Glc
# In short: as §1
# [28] = target: Neu5Ac(a2-8)Neu5Gc(a2-3)Gal(b1-4)GlcNAc
# In short: as §1
# [29] = target: Neu5Ac(b2-6)Gal(b1-4)GlcNAc
# In short: as §1
# [30] = target: Neu5Ac(b2-6)GalNAc
# In short: as §1
# [31] = target: Neu5Ac9Ac(a2-3)Gal(b1-3)GlcNAc
# In short: as §1
# [32] = target: Neu5Ac9Ac(a2-3)Gal(b1-4)GlcNAc
# In short: as §1
# [33] = target: Neu5Ac9Ac(a2-6)Gal(b1-4)GlcNAc
# In short: as §1
# [34] = target: Neu5Gc(a2-3)Gal(b1-3)GlcNAc
# In short: as §1
# [35] = target: Neu5Gc(a2-3)Gal(b1-3)[Fuc(a1-4)]GlcNAc
# In short: as §1
# [36] = target: Neu5Gc(a2-3)Gal(b1-4)Glc
# In short: as §1
# [37] = target: Neu5Gc(a2-3)Gal(b1-4)GlcNAc
# In short: as §1
# [38] = target: Neu5Gc(a2-3)Gal(b1-4)GlcNAc(b1-3)Gal(b1-4)GlcNAc(b1-2)Man(a1-3)[Neu5Gc(a2-3)Gal(b1-4)GlcNAc(b1-3)Gal(b1-4)GlcNAc(b1-2)Man(a1-6)]Man(b1-4)GlcNAc(b1-4)GlcNAc
# In short: as §1
# [39] = target: Neu5Gc(a2-3)Gal(b1-4)[Fuc(a1-3)]GlcNAc
# In short: as §1
# [40] = target: Neu5Gc(a2-6)Gal(b1-4)GlcNAc
# In short: as §1
# [41] = target: Neu5Gc(a2-6)GalNAc
# In short: as §1
# [42] = target: Neu5Gc(a2-8)Neu5Ac(a2-3)Gal(b1-4)GlcNAc
# In short: as §1
# [43] = target: Neu5Gc(a2-8)Neu5Gc(a2-3)Gal(b1-4)GlcNAc
# In short: as §1
# [44] = target: Neu5Gc(a2-8)Neu5Gc(a2-3)Gal(b1-4)GlcNAc(b1-3)Gal(b1-4)GlcNAc
# In short: as §1
# [45] = target: Neu5Gc(a2-8)Neu5Gc(a2-6)Gal(b1-4)GlcNAc
# In short: as §1
# [46] = target: Neu5Gc(b2-6)Gal(b1-4)GlcNAc
# In short: as §1
binder,measurement,setting,value
B1,glycan array binding signal (z-score),[1],-0.147
same,glycan array binding signal (z-score),[2],0.035
same,glycan array binding signal (z-score),[3],-0.085
same,glycan array binding signal (z-score),[4],-0.201
same,glycan array binding signal (z-score),[5],0.128
same,glycan array binding signal (z-score),[6],-0.204
same,glycan array binding signal (z-score),[7],-0.143
same,glycan array binding signal (z-score),[8],-0.097
same,glycan array binding signal (z-score),[9],-0.022
same,glycan array binding signal (z-score),[10],-0.459
same,glycan array binding signal (z-score),[11],-0.41
same,glycan array binding signal (z-score),[12],-0.215
same,glycan array binding signal (z-score),[13],-0.262
same,glycan array binding signal (z-score),[14],-0.316
same,glycan array binding signal (z-score),[15],-0.014
same,glycan array binding signal (z-score),[16],0.074
same,glycan array binding signal (z-score),[17],-0.328
same,glycan array binding signal (z-score),[18],1.36
same,glycan array binding signal (z-score),[19],-0.096
same,glycan array binding signal (z-score),[20],-0.669
same,glycan array binding signal (z-score),[21],-0.095
same,glycan array binding signal (z-score),[22],0.584
same,glycan array binding signal (z-score),[23],-0.233
same,glycan array binding signal (z-score),[24],-0.358
same,glycan array binding signal (z-score),[25],-0.208
same,glycan array binding signal (z-score),[26],-0.22
same,glycan array binding signal (z-score),[27],-0.59
same,glycan array binding signal (z-score),[28],-0.368
same,glycan array binding signal (z-score),[29],-0.262
same,glycan array binding signal (z-score),[30],-0.348
same,glycan array binding signal (z-score),[31],-0.439
same,glycan array binding signal (z-score),[32],-0.385
same,glycan array binding signal (z-score),[33],-0.466
same,glycan array binding signal (z-score),[34],-0.312
same,glycan array binding signal (z-score),[35],0.288
same,glycan array binding signal (z-score),[36],-0.124
same,glycan array binding signal (z-score),[37],-0.387
same,glycan array binding signal (z-score),[38],0.349
same,glycan array binding signal (z-score),[39],0.275
same,glycan array binding signal (z-score),[40],0.119
same,glycan array binding signal (z-score),[41],0.269
same,glycan array binding signal (z-score),[42],-0.294
same,glycan array binding signal (z-score),[43],-0.173
same,glycan array binding signal (z-score),[44],-0.561
same,glycan array binding signal (z-score),[45],-0.611
same,glycan array binding signal (z-score),[46],0.351
